Laboratory results from the supplement of paper PMC3334620.
Whole data set: some 33,000 sequences, median “E-score (-0.5 to 0.5)” near -0.01, cut for the highest 2% near 0.26. Some of the results follow.

target: Ste12 (UniProt P13574); assay: PBM E-score (8-mer binding enrichment) (E-score (-0.5 to 0.5)); higher = stronger / more preferred TF binding; most listed sequences are background and not binding sites; settings: protein concentration: 200 nM; construct: GST-DNA-binding domain
Procedure: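 Universal 'all 10-mer' protein binding microarrays (Agilent AMADID 015681) probed with GST-tagged S. cerevisiae TFs (full-length or DBD) made by in vitro transcription/translation (PURExpress), about 100-200 nM. Bound TF was detected with fluorescent anti-GST. Each ungapped 8-mer (which stands for itself and its reverse complement) is scored by the PBM enrichment score (E-score), a modified Wilcoxon-Mann-Whitney statistic from -0.5 to +0.5, computed with the Universal PBM Analysis Suite. Scale: above 0.35 generally sequence-specific binding.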

Sequence	PBM E-score
GCCATCCC	-0.0503
CCTACATC	-0.0386
GCTCATCA	-0.0615
ACAGACAC	-0.0621
ACACCGAT	-0.198
CTCGCGTC	-0.0265
CAATATAC	0.116
AGTTGACA	-0.0152
ACCGCATA	0.102
CCGGCGTC	0.041
CCCTAGGA	-0.0792
AGGTACAT	-0.118
CTCGTATC	-0.0255
CGGTTTCC	0.1
CAACAGTC	-0.144
AATCACGA	-0.105
GAATTATC	0.0425
CACAAAAC	0.23
CCCCATCC	0.0406
TTAGATAA	0.065
CGTGCATA	-0.189
ATAAGGTG	0.038
GACATCGC	-0.126
ATGGTCCA	-0.157
TCGGACAA	0.134

Sequence	PBM E-score
ATGTCCGC	-0.181
CTGTCTGA	0.0429
TCTGTCAA	0.0339
AACGGAGT	0.114
ACGTAAGC	-0.176
CGAGGTGC	-0.0816
GCTAGCTA	-0.113
ATCTCGTA	-0.125
GGTTAGAA	-0.145
TACTAGAA	0.196
CGTAACGC	0.248
AGGTCAAG	-0.0303
CCCGCTTA	-0.0721
GCAGCTCC	-0.209
CAGCCATG	-0.0258
AGCAAATA	0.085
GGCTCTAA	0.157
CAAGGGTC	-0.167
AAGCTATA	0.0484
GTTGCGTA	0.256
CGAAATAC	0.0956
AAAGTTAT	0.185
CCAGATAG	-0.0151
CGGTATTC	0.156
GGGTTGCA	-0.011

Sequence	PBM E-score
AAGATTGC	-0.0392
CTGCGTGA	-0.136
GGTATGAA	0.14
GAGCCCAA	-0.164
CATGCACC	-0.128
CTCGAGTC	-0.0851
ATTATATC	0.166
ATGGAGAC	-0.014
TAATCTGA	0.0394
ACGCTTTA	-0.162
CGATTTCC	0.0567
CAGGTCAC	-0.219
CTATCTGA	-0.0546
GCCGTCGC	-0.0253
GGCAGATA	-0.0829
CCCACCGA	0.173
ATCGAAGG	-0.00355
GTGTGAAA	0.307
GTAGTACA	-0.0577
ATCACGAT	-0.108
ACGCTAAG	-0.0711
GGACAGGA	-0.152
CATCCACA	-0.0354
CGACCATC	-0.0834
AACTTGAG	-0.123

Sequence	PBM E-score
ATGTGCTA	0.0547
GTCCCACA	-0.0414
AGTAACTC	-0.206
TCAGATCA	-0.14
GTACGAGA	0.055
ACATGACC	0.0344
AGTAAGAC	-0.0577
GGTGAAAC	0.463
ATTTCGAA	0.253
CTTGTCCC	0.0279
GAAACTCC	0.22
CTTTTATC	0.147
AGTGTGGG	-0.0494
AGCAAAGG	0.114
GGCGATTA	-0.131
AATGCTAA	0.0566
CAGGCGAC	-0.072
ACGCAGAG	-0.109
GGTTAAGA	0.0651
AACATACT	0.0629
TAACACCA	0.188
CATAAGCA	0.0276
ACATGTTA	0.121
CTAGTATC	0.0819
AGCCGAGG	0.00737

Sequence	PBM E-score
AATTTGAA	0.212
GATCTAGC	-0.165
CCGATAAG	-0.0182
CTATATGC	-0.0876
CGACGCTA	0.00793
AGGTCTAT	0.00791
AGATCAAT	-0.0352
TCTCGAGA	0.22
ACCGCAGA	-0.0299
GCTTATAA	0.0238
ATAGTGGC	-0.0977
ATAGGGGG	-0.298
CCCAAAAG	0.0115
AAGGCTGG	-0.296
CTCACGAC	-0.039
AGTGGAGA	-0.0286
AGTCTGGC	-0.178
CGAACATC	-0.00548
GTCCCAGA	-0.0568
ACGACAGT	-0.147
AATACTCA	0.0844
TACGCGCA	0.0338
CCCGTGCA	-0.115
CCTCAGAG	-0.153
GATTGAAA	0.243

Sequence	PBM E-score
AGCCTTAG	-0.132
AGGTGTGC	-0.164
ACATTATG	0.0347
TAAAAAGA	0.248
ACGTGCGC	0.0385
ATCCGGCC	0.145
CTTGACAC	0.106
GCCCTATA	-0.124
CATGCTGA	0.053
CAACGCCA	-0.00117
TTCCCAAA	0.218
ACTTCAGG	-0.0766
AGAACATA	0.119
ATACGAGC	-0.0348
CATACTGG	-0.0627
GTTCTGTA	-0.0098
AGCCGCCG	-0.024
ATACTGAA	-0.0326
AACACCTG	-0.0339
AAGGAACG	0.0516
ATCATACG	-0.0371
GAAGCATC	-0.0946
CCAATGGA	-0.166
CAGCTGGC	-0.0259
CGTTGACC	-0.118

Sequence	PBM E-score
CTTAACGC	-0.077
ACCCCAGG	-0.259
CTGGAACC	-0.22
AACCAGCT	-0.00605
AGTCAGAT	-0.0683
CGTGATTA	-0.079
GAGTTAAC	-0.0983
CCAGGCGC	-0.157
AGGCTATG	-0.138
GAACATCA	-0.0739
GCTCGTCC	-0.0971
ATGTGTAA	-0.0557
CAGTGCGC	-0.183
ACGACGAC	-0.142
CGACTAGA	0.011
CCAGGCTA	-0.0827
ACTCACCG	0.0174
CCACGTCG	-0.0119
AGAATCAC	-0.209
GCTTACTA	0.00559
ACAACGGG	0.00389
AATCCATA	0.0365
